Reference: PubChem BioAssay AID1452 (National Center for Advancing Translational Sciences (NCATS), 2008)
In all, about 150,000 compounds went through this assay and about 190 (0.13%) were called active. Inconclusive results, whose numbers are uncertain, are shown with a selection of clear calls. Calls follow the shape of the dose curve; as a rule, active = well fitted inhibition curve with a large enough effect; inconclusive = small, poorly fitted or top-dose-only effect; inactive = flat fitted curve, though single readings scatter. A potency beside an inconclusive call is a rough fit, not a confirmed value.

Each molecule was assayed against Polyunsaturated fatty acid lipoxygenase ALOX12 (Homo sapiens) (UniProt P18054) (assay: qHTS Assay for Inhibitors of 12-hLO (12-human lipoxygenase)). Conditions: purified 12-hLO, xylenol orange hydroperoxide absorbance; series mostly up to 57.1 µM; activity change, negative = inhibition: at the top concentration.
In short: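 Purified human 12hLO (150 nM final) was preincubated with compounds for 15 min at room temperature in 25 mM Hepes pH 7.0, 0.01% Triton X-100, then reacted with 40 uM arachidonic acid for 30 min. Hydroperoxide was detected with ferrous iron/xylenol orange.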
% is scaled to controls: 0 for no effect and ±100 for the full control effect; potency is read from the fitted curve at half-maximal effect; tags tell the direction and shape of the fitted curve.
Also: nearly all actives have a fitted effect of over 55% in size.

Chain of UniProt P18054 (P18054 whole entry, looked up): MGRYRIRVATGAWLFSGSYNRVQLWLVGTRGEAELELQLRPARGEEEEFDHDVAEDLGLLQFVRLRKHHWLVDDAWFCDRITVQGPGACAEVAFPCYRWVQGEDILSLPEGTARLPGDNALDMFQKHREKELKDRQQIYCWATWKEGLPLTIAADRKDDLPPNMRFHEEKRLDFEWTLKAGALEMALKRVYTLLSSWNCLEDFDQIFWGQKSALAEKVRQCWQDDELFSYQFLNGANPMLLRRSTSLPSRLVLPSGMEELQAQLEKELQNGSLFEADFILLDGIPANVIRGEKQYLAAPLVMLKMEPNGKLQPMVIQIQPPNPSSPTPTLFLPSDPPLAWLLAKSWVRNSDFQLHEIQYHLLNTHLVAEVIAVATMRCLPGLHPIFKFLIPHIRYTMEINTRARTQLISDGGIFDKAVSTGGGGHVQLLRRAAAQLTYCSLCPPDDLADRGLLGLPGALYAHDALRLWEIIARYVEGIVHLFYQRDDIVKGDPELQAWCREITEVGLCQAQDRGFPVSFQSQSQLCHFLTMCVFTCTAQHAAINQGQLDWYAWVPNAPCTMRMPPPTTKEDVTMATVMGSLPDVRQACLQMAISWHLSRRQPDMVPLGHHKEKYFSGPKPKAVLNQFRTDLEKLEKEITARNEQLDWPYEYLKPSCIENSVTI

Q: Which Potency does the source give for Cc1ccccc1C1=NC(c2ccc(F)cc2F)ON1 (centres undefined) here?
A: inconclusive: 28.2 µM [inhibitor, single point]

Q: Which Potency does the source give for CCOC(=O)c1c(N)sc2c1CCC(C)C2 (centres undefined) here?
A: inconclusive: 10 µM [inhibitor, partial curve]

Q: For CCCc1cc(=O)[nH]c(SCC)n1, which “activity change, negative = inhibition” value is on record?
A: inactive: -2.37%

Q: For CC1=CC2=C(OC1N(C)C)c1cccc3cccc(c13)C2=O (centres undefined), which Potency is on record?
A: inconclusive: 14.1 µM [inhibitor, partial curve]

Q: How did the Potency turn out when C=C(C)COc1ccc(-c2[nH]ncc2Oc2ccccc2OCC)c(O)c1 was run?
A: inconclusive: 3.98 µM [inhibitor, full curve]

Q: With COc1ccc2nc(NC(=O)C3CCCN(S(=O)(=O)c4cccc5nonc45)C3)sc2c1 (centres undefined) as the molecule, how does the “activity change, negative = inhibition” value read?
A: inactive: -6.17%

Q: For COc1ccc(-n2c(C)c3c(OC)cccc(=O)c3c2C)cc1, which Potency is on record?
A: inconclusive: 17.8 µM [inhibitor, partial curve]

Q: For CCOC(=O)Cc1csc(NC(=O)c2sc3nc4ccc(CC)cc4cc3c2N)n1, which Potency is on record?
A: active: 10 µM

Q: COC(=O)c1cccc(NC(=S)NCCC2=CCCCC2)c1 was tested. Which Potency did it give?
A: inconclusive: 20 µM [inhibitor, partial curve]

Q: With COCCn1nnnc1C(c1cc2cccc(C)c2[nH]c1=O)N1CCN(c2ccccc2F)CC1 (centres undefined) as the molecule, how does the “activity change, negative = inhibition” value read?
A: inactive: -2.88%

Q: With COC(=O)c1ccc(C(/C=C/[C@@H](C)C(=O)NCc2cc(C)n(C)n2)NC(=O)OCc2ccccc2)cc1 (some centres undefined) as the molecule, how does the “activity change, negative = inhibition” value read?
A: inactive: 0.727%

Q: Which Potency does the source give for CCSC1=NSC2=NC(=O)/C(=C\c3coc4ccccc4c3=O)C(=N)N12 here?
A: inconclusive: 35.5 µM [inhibitor, single point]

Q: How did the “activity change, negative = inhibition” value turn out when COc1ccc(C2CC(=O)N3C(=C2C#N)SCC3(O)c2ccccc2)cc1 (centres undefined) was run?
A: inactive: -16.9%

Q: For COc1cc(/C=c2\s/c(=C(/C#N)C(=O)N3CCCC3)n(-c3ccccc3)c2=O)ccc1O, which “activity change, negative = inhibition” value is on record?
A: inactive: -3.2%

Q: For Oc1ccc(-c2[nH]ncc2-c2ccc(Cl)cc2)c(O)c1, which Potency is on record?
A: inconclusive: 17.8 µM [inhibitor, single point]

Q: How did the Potency turn out when O=C(NC(Nc1ncc(S(=O)(=O)c2ccc([N+](=O)[O-])cc2)s1)(C(F)(F)F)C(F)(F)F)c1ccc(Cl)cc1 was run?
A: inconclusive: 20 µM [inhibitor, single point]

Q: How did the Potency turn out when Cc1ccc(NC(=O)CSC2=C(C#N)C(c3ccco3)C3=C(CCCC3=O)N2)cc1 (centres undefined) was run?
A: inconclusive: 14.1 µM [inhibitor, partial curve]

Q: C/C(=N/Nc1ccc(F)cc1)c1ccc(Cl)s1 was tested. Which Potency did it give?
A: inconclusive: 25.1 µM [inhibitor, single point]

Q: Which Potency does the source give for Cc1ccc(NC(=S)NCCc2c[nH]c3ccccc23)cc1 here?
A: inconclusive: 22.4 µM [inhibitor, single point]

Q: Which Potency does the source give for O=c1c(O)c(-c2ccc(O)c(O)c2)oc2ccccc12 here?
A: inconclusive: 25.1 µM [inhibitor, partial curve]

Q: With O=C(Nc1nnc(-c2ccc(Cl)cc2)o1)c1ccccc1Br as the molecule, how does the Potency read?
A: inconclusive: 14.1 µM [inhibitor, partial curve]

Q: For COc1ccc(OC)c(C2CC(=O)N3CN(c4cccc(Cl)c4C)CSC3=C2C#N)c1 (centres undefined), which Potency is on record?
A: inconclusive: 15.8 µM [inhibitor, partial curve]

Q: COc1ccc(NC(=S)Nc2cc(-c3ccccc3)[nH]n2)cc1Cl was tested. Which Potency did it give?
A: inconclusive: 25.1 µM [inhibitor, single point]

Q: Which Potency does the source give for CCOC(=O)C1=NNC2(c3ccc(Cl)cc3)C(=O)N(c3cc(C)cc(C)c3)C(=O)C12 (centres undefined) here?
A: inconclusive: 7.08 µM [inhibitor, partial curve]

Q: How did the Potency turn out when COc1cc([C@@H]2Oc3cc([C@H]4Oc5cc(O)cc(O)c5C(=O)[C@H]4O)ccc3O[C@H]2CO)ccc1O was run?
A: inconclusive: 12.6 µM [inhibitor, partial curve]

Q: How did the “activity change, negative = inhibition” value turn out when O=C(CCCc1nc2ccccc2s1)NCc1ccccc1F was run?
A: inactive: 0.713%

Q: For CCOC(=O)c1c(NC(=S)Nc2ccc(F)cc2)sc2c1CCC2, which “activity change, negative = inhibition” value is on record?
A: inactive: -13.9%

Q: How did the activity change, negative = inhibition turn out when COC(=O)C1=C(C(=O)OC)[C@@H]2N(C)c3ccc(OC)cc3[C@@]23C[C@@H](C(=O)OC)N(S(=O)(=O)c2c(C)noc2C)C3=N1 was run?
A: inactive: -6.61% [at 11.4 µM]

Q: For COc1ccc(-c2cc(C(=O)O)no2)cc1, which activity change, negative = inhibition is on record?
A: inactive: -1.03% [at 0.00818 µM]

Q: Which “activity change, negative = inhibition” value does the source give for O=C(NCc1cccs1)C1CCCN(S(=O)(=O)c2cccc3cccnc23)C1 (centres undefined) here?
A: inactive: 0.699%

Q: CCCC(=O)c1ccc(N2CCN(C(=O)c3ccccc3Br)CC2)c(F)c1 was tested. Which “activity change, negative = inhibition” value did it give?
A: inactive: -4.73%

Q: With O=[N+]([O-])c1cc(Br)c(O)c(/C=N/Nc2nnnn2-c2cccc3ccccc23)c1 as the molecule, how does the Potency read?
A: inconclusive: 31.6 µM [inhibitor, single point]

Q: COc1cc(NC(=O)CN(c2ccc(C)cc2)S(=O)(=O)c2c(C)n[nH]c2C)cc(OC)c1 was tested. Which Potency did it give?
A: inconclusive: 25.1 µM [inhibitor, partial curve]

Q: Cc1ccc(S(=O)(=O)NC(=O)NN2CCCCCC2)cc1 was tested. Which Potency did it give?
A: inconclusive: 7.08 µM [inhibitor, single point]

Q: With O=C1C=C(c2ccc(Cl)cc2)C(=O)N1Nc1ccccc1 as the molecule, how does the Potency read?
A: inconclusive: 28.2 µM [inhibitor, single point]

Q: Which “activity change, negative = inhibition” value does the source give for COc1ccc(OCc2ccc(C(=O)O)cc2)cc1 here?
A: inactive: -4.05%

Q: With CCc1cccc(CC)c1NC(=S)NCCc1c(C)[nH]c2ccccc12 as the molecule, how does the Potency read?
A: inconclusive: 31.6 µM [inhibitor, single point]

Q: How did the Potency turn out when CCOc1ccc(C2Nc3cccc4cccc(c34)N2)cc1OC was run?
A: inconclusive: 2 µM [inhibitor, full curve, poor fit]

Q: S=c1[nH]nc(Cc2cccc3ccccc23)n1-c1ccccc1 was tested. Which Potency did it give?
A: inconclusive: 20 µM [inhibitor, partial curve]

Q: With CCC(=O)Nc1nnc(C)s1 as the molecule, how does the “activity change, negative = inhibition” value read?
A: inactive: 3.47%

Q: How did the Potency turn out when Cc1ccc(C(=O)NC(=S)Nc2ccccc2C(F)(F)F)c(C)c1 was run?
A: inconclusive: 2.82 µM [inhibitor, full curve, poor fit]

Q: With N#CC1=C2N=C(N)c3ccccc3N2C2=C(C(=O)CCC2)C1c1ccc(Cl)cc1 (centres undefined) as the molecule, how does the Potency read?
A: inconclusive: 20 µM [inhibitor, single point]

Q: Which Potency does the source give for Cc1cc(C)cc(NS(=O)(=O)c2ccc(NC(=S)NC(=O)c3ccc(Br)o3)cc2)c1 here?
A: inconclusive: 15.8 µM [inhibitor, partial curve]

Q: For Cc1ccc(C2CC(=O)N3CN(c4ccc(Br)cc4)CSC3=C2C#N)o1 (centres undefined), which Potency is on record?
A: inconclusive: 12.6 µM [inhibitor, partial curve]

Q: O=C(NC(=S)NCCc1ccccc1)c1ccco1 was tested. Which Potency did it give?
A: inconclusive: 35.5 µM [inhibitor, single point]

Q: COc1ccc(-n2nc3cc(C)c(N)c(Br)c3n2)cc1 was tested. Which Potency did it give?
A: active: 25.1 µM

Q: For Fc1c(F)c(C(F)(F)F)c(F)c(F)c1N/N=C\c1cccs1, which Potency is on record?
A: inconclusive: 25.1 µM [inhibitor, single point]

Q: How did the Potency turn out when CCOc1ccc(NS(=O)(=O)c2ccc3[nH]cc(C(=O)N(CC)CC)c(=O)c3c2)cc1 was run?
A: active: 15.8 µM

Q: For Oc1cc(O)c2c(c1)O[C@@H](c1ccc(O)c(O)c1)[C@H](O[C@@]1(c3cc(O)c(O)c(O)c3)Oc3cc(O)cc(O)c3[C@H](O)[C@@H]1O)C2, which Potency is on record?
A: inconclusive: 3.55 µM [inhibitor, partial curve]

Q: Which Potency does the source give for COc1ccc(C(c2c(NC(=O)c3ccccc3)sc(C)c2C)N2CCN(CCO)CC2)cc1 (centres undefined) here?
A: inconclusive: 31.6 µM [inhibitor, single point]

Q: How did the “activity change, negative = inhibition” value turn out when O=C(CN(CC1CCCO1)C(=O)CCC(=O)Nc1ccccn1)NCc1ccccc1 (centres undefined) was run?
A: inactive: -1.05%

Q: Which Potency does the source give for CC(Cc1cccs1)NC(=S)Nc1ccc(Cl)c(Cl)c1 (centres undefined) here?
A: inconclusive: 31.6 µM [inhibitor, single point]

Q: How did the “activity change, negative = inhibition” value turn out when Cc1ccc(/C=C(\C#N)c2nc3ccccc3[nH]2)s1 was run?
A: inactive: -14.5%

Q: How did the Potency turn out when CCOc1ccc(NS(=O)(=O)c2ccc(NC(=S)NC(=O)CC(C)C)cc2)cc1 was run?
A: inconclusive: 22.4 µM [inhibitor, single point]

Q: For O=C(Oc1c(Cl)cc(Cl)c2cccnc12)c1ccco1, which Potency is on record?
A: inconclusive: 3.98 µM [inhibitor, partial curve]

Q: Which Potency does the source give for Cc1ccc(C2CC2C(=O)NNC(=S)Nc2cccc(C)c2)cc1 (centres undefined) here?
A: inconclusive: 14.1 µM [inhibitor, partial curve]

Q: For O=C(CCc1nc(-c2ccccc2F)no1)NC1CCCCC1, which “activity change, negative = inhibition” value is on record?
A: inactive: 2.2%

Q: How did the Potency turn out when COc1ccc(-c2cc(-c3ccccc3O)[nH]n2)cc1OC was run?
A: inconclusive: 12.6 µM [inhibitor, partial curve]

Q: For CC(C)(C)n1nnnc1C(c1cccs1)N1CCCC2(CCCCC2)C1 (centres undefined), which “activity change, negative = inhibition” value is on record?
A: inactive: 1.86%

Q: CC1=C(C(=O)Nc2cccnc2)C(c2cccnc2)n2nc(-c3cccs3)nc2N1 (centres undefined) was tested. Which Potency did it give?
A: inconclusive: 12.6 µM [inhibitor, partial curve, poor fit]

Q: Nc1cc(-c2ccc(Cl)cc2)nn1S(=O)(=O)c1ccc(Cl)cc1 was tested. Which Potency did it give?
A: inconclusive: 1.12 µM [inhibitor, full curve]

Q: With COCC(C)NC(=O)NC1(C(F)(F)F)Oc2ccc(Cl)cc2O1 (centres undefined) as the molecule, how does the Potency read?
A: inconclusive: 0.0316 µM [inhibitor, full curve, poor fit]

Q: Which “activity change, negative = inhibition” value does the source give for COc1cccc(C2SCC(=O)N2c2ccc(C)cc2)c1OC (centres undefined) here?
A: inactive: 2.03%

Q: For COc1cccc(-c2csc(N3CCN(C(=S)Nc4cccc(Cl)c4)CC3)n2)c1, which Potency is on record?
A: inconclusive: 14.1 µM [inhibitor, partial curve]

Q: O=C(NC(=S)NCCc1ccccc1)c1ccccc1 was tested. Which Potency did it give?
A: active: 17.8 µM

Q: How did the “activity change, negative = inhibition” value turn out when COc1ccc(C)cc1S(=O)(=O)Nc1ccc(F)c(Cl)c1 was run?
A: inactive: 7.76%

Q: How did the “activity change, negative = inhibition” value turn out when O=C(Nc1ccc(Cl)c([N+](=O)[O-])c1)c1ccc(NCCCN2CCOCC2)c([N+](=O)[O-])c1 was run?
A: inactive: 0.751%

Q: How did the Potency turn out when C/C(=N\NC(=S)NC1CCCCC1)c1ccccc1 was run?
A: inconclusive: 3.55 µM [inhibitor, full curve]

Q: How did the Potency turn out when CCCCCC(=O)NC(=S)Nc1ccccc1C(=O)OC was run?
A: inconclusive: 17.8 µM [inhibitor, partial curve]
